Measured values as given in the RNAGym collection of RNA variant scans (doi:10.7554/elife.90254).
The source gives no read counts; variants with many changes may rest on few reads.

B1: LINE1-full (parent)
chain: UACGUAGGUGGUUUUCCCCUGAUAGUGCUAAGGGGGCCUGGAAGUUUGGACUGGGCAGAGCUCAACACAGCGUGGCAAAGUGGCUGUGGCUAGACUGCCUCUCUGGAUUCCUCGUCACUCAGCAGGGCAUCUCUGAGAGAAAUGCC

Variants of: B1
Assay: self-cleavage, relative activity (ratio to wild type); higher = more cleavage; in vitro, sequencing; the parent is a self-cleaving ribozyme

Variant | self-cleavage
U73C U119C A141G | 1.64
A2G U46C A57U U102C C113U | 0
U45C A57G U143C | 1.39
U9A A22U C51U U100C | 1.23
A2G U5A U73C U134C | 2.3
A77U U104A A141U | 1.01
U15C U20G U132C | 1.31
U13A A94G U102C | 0.32
U52C A107G U130C | 2.37
U102C U115C U134A | 0
G35A U45C U132A | 1.16
G72U U112C A141G | 2.72
U1C U12G A31G G48A A67G | 0
G10U A22G U87C | 0.34
A22U A140G A141G | 1.87
U13A A124G A141G | 1.25
A57G A77G U87A A92G | 0
G36U U102C U143A | 1.58
G32A U62C C63U | 0.02
U1C U81C A94G G105U | 0.15
A78G U115C G125U A142G | 2.01
A22U A43U U45C A69U | 0.15
C28U A78U U108C | 1.5
A57U G75A U96C | 0.12

Variant | self-cleavage
G41A A59G U96C | 0
A31G U85C A124U | 0.19
U14C U20A U47A A142G C145A | 0.67
A6G U14A G48A A65U U130C U143A | 0
A22G A64G G114U | 0.34
U14C A30G A69G | 0
U5C U39G A129G | 1.47
U47C U85A U87C U102A | 0.36
U14C A30G C103U | 0.92
U46C A57G G80U | 1.25
U45A U85C G93U U112A | 0.08
A42U A57G U102C | 0.2
U5A A6G U13C U62C A141G | 0.4
U14C A129G U134A | 1.05
U12C U87A U143C | 0.06
U81A A117G U132C C133A | 1.08
U20C U46C U73A | 1.51
A43G U45C U47A A78U | 1.09
U15A U47C C128U U134G | 0.71
U13C U47C A142U | 1.16
C38U G82A U112C | 1.58
A22G A67G A107G | 0
U9C U26C A78G A94G | 1.67
U9A G105A U108C | 1.22

Variant | self-cleavage
U9C U112A A140G | 0.85
U5C U13C A124G | 0
U39A A43G U85A A121G | 0.11
U13C U47A U73A | 1.2
U13C G70A A142G | 0.11
A78G G82U U91A A142G | 0.73
U62C U87C G139A | 0.19
A78G U96C C123U U132C A138G U143A | 0.11
U20A A64U U85A U87C U96A A129G | 0
G34C U109C U132C | 1.99
U14C U20C A30U G75C | 0
U52C A77U A121G | 0
U13C U96C U112C | 0.33
U5C A43U U46C G54U A77G G83A U115G | 1.3
U15C A50G U102A | 1.59
A6U A142G U143A | 1.04
U26A U85A A94G U130C | 0.2
C19U U46C U73A | 1.7
U15C U47A A141G | 1.42
U87C U109C A138U | 0
U12C U15A A31U A59U C98A A141U | 0.39
A2U G36A A78U G114U | 1.14
U12C A94G G106U | 0.24
U39C U52C A65U U73A U112C U132C | 0

Variant | self-cleavage
A43G A65U U108C A124G | 0.75
U39C U45C A117U | 0.61
U20C A65G U115A | 0
A121G A124G U143C | 0.53
U15G U112A U143C | 0.77
U13C A65G U96A A117G | 0
G4A A64G U143C | 0.26
A31G C37A U109A | 1.31
A57U A117U A129G | 0.14
U46A C61A A79G U85C U143C | 0.09
U1C A50G A77G U134C | 0.97
A22U U81A C90U | 0.05
U14A A50U U108C | 2
G4C A64U A117G U119A | 0.51
U39G U85A U109A A138U | 0.06
G33A U62A A67G A140U | 0.13
G4A A31C U81A A140G | 1.57
A50U A57C A64G C95U G122U U134A | 0.01
U26C U47C U73C | 1.84
A42G U100A U130C | 1.25
U20A A50G G54A A78C | 0.26
U47C A79G A124U | 0.63
U62C U85C C113A | 0.1
U13C U46C A124G U132C | 1.74

Variant | self-cleavage
A6G U87A A129G | 0.43
U52C A59G A79G | 0
G7A U14C C17U C56U | 0.33
A22G G32A C37U | 1.25
A92U A94U U100C | 0.59
U39C A117U A138G | 1.3
U14A C38U U112A | 0.79
A2G C3U A43G G44A | 0.74
U12C A57G A77G U81A | 2.54
A59G U104C A142G | 0
U14C U46A U81C A92U A94U | 0.52
U46C A57G A69G U87A C110U A142U | 0
A59G A64U A69G | 0
U15G U20C A117G A141C | 1.31
U12G C118U U132C | 1.04
A22G A121G U132A | 1.61
U45C A78U U108C U109A | 2.04
U39C A78G U109C U112C U143C | 1.84
A65U U91C A142G | 0.02
U9A U39C A64U A121U | 0.3
U85C A121U A142G | 0.11
C37G A94G C120U | 0.23
U5C A42U A142G | 1.1
A42G A65G G97A | 0.24

Variant | self-cleavage
G55C U81A A136U | 0.11
A2G U13C G33A A65C | 0.28
G54C A65G U73C A138G | 0
U1C A43G U81A | 1.09
U20C A43U U119C | 1.39
U14C U62C A138G A142U | 0.07
U46C U85A U130C A136G A142G | 0.37
A24G A59U A124U | 0.56
G72A U108C A124G | 1.58
U45C G125U A142G | 2.03
U23C A57G A78G A121C | 0
U15C U45C U96C | 0.7
U9A A42G U47C U102C C146U | 0
C19U A30U A42G | 1.01
U46C A57G A141G | 1.5
C3U G36A A124G | 0.48
U20C A22U C61G A78G A107G | 0.11
A22U A42G U45C G72C | 1.11
A65U A77U A117U A124G G126A | 0.13
U12C U14A A94U U100C A142G | 0.91
G36C U104A A140G C146U | 0.38
A2G U102C A141G | 1.46
U62A U119C A136C | 0.04
A64U G72C U115A A117G A136U A140C | 0.3

Variant | self-cleavage
A65G A117U G122U A140G | 0.04
U13C U62C A141G | 0
U12C U115A U134A A138U | 1.55
U15C G70A A117G A141U | 0.13
A59G A121G C128A | 0.09
G36U U45A U52C U130C | 0.88
U15C U29C U52A U91A | 0.83
G27A A59G U143C | 0.06
U26C A65U U109C U134C | 0
U12C U29A G35C A57U A78G C90A U109A | 0.06
U85C U87C U119A | 0
U12C A138G G144A | 1.61
U9C U12A A77G C99U A107G U119C | 2.63
U20A U45C A141G | 1.1
U13C G75A A78G A117U | 0.68
A31G U96C A117U | 0.05
U15A U46C C56A A65G U115C | 0.06
G32U A67G G89A | 0.03
A2U C56U A121G | 0.16
C101U G126A A140G | 2.45
U112A U119A A138G | 1.26
U85C U109C U134A | 0.31
U13A U62C C113U A141G U143C | 0
